# Some of the results follow.
# B1: 71361155_71361795_1258_CDS_ENSG00000124383_ENST00000244230|human|control|control (ssRNA)
# RNA: GGGAGUUCUACAGUCCGACGAUCUUUAUUGUCUUCAUUUUCUUGAAGGUCAUCAUCUUCAUCCGUUUCCGAAAUACUUAGUUCUUCUGCUUCUUCUUCAGCAAUUUCAUCAUCUUCUUUGUUUGAAUCCAGCUCAUCAUCAUGCAACAGAGGAUUGAGCAUCA
# B2: chr8:26875701:26875702:-_ENSMUSG00000037316_ENSMUST00000038498|mus_hu|FALSE|FALSE (ssRNA)
# RNA: GGGAGUUCUACAGUCCGACGAUCCAGGACGUAGGCAUGAUAGCUAAAUGCAAGGCUGGGUCUUGGAACAGUAAAAGGACAUUAGUGAAAAGACUAAAAUCUCUACUUUUUAAACUUUCUACUUUAGUUAGUAUUAUAUCAAGGCAACAGAGGAUUGAGCAUCA
# B3: 35108640_35115693_214_5pUTR_ENSG00000005238_ENST00000378566|human|control|control (ssRNA)
# RNA: GGGAGUUCUACAGUCCGACGAUCUGCCUCGUGCCCCUAGCUUGCAGUCUGAUCCAUGCCUGCUGCACUGGCAAGGUGACUGCCACCAUUCCGUGCAGCUCCUGAGCUCAGCAGGACCCUUGUUGCCCACACAUUGAGUCCCCACAACAGAGGAUUGAGCAUCA
# B4: chr1:89340274:89340275:+_ENSMUSG00000048000_ENSMUST00000174671|mus_hu|motif|central (ssRNA)
# RNA: GGGAGUUCUACAGUCCGACGAUCUUUGGCACGGCGCUCAAGGAACUGCUUGGCAAACUCCUUGGCCUCAGAAGUAUCUCCGGAAUAGGCCCUGAUAUAAUCAUGGACCUCAUAAGGAGAUUCUACUUCUUUCAGGAAAGAAACCAACAGAGGAUUGAGCAUCA
# B5: 103801465_103801585_240_5pUTR_ENSG00000100664_ENST00000558506|human|control|control (ssRNA)
# RNA: GGGAGUUCUACAGUCCGACGAUCUUUAAGGGCAACCUAGGGAACUGUUCUCUACAACUAAUCGUUGCUUCGGCAACCAUGGCUUACUUCAAAGCAGCACUUCCUUAAACGCAGCGCUCGCCCACAAUUUGCCAUUAAGCAAGACAACAGAGGAUUGAGCAUCA
# B6: chr13:31722556:31722557:-_ENSG00000120694_ENST00000320027|perfect_dup|FALSE|FALSE (ssRNA)
# RNA: GGGAGUUCUACAGUCCGACGAUCUUCAUGAACACCUUCAGUAUCUUCUGAAUCAUGGUUCCAGAUCAGAGAUAUUGGAAAAGGAACUGCAUCUGUGACGGAAAAUUCUCUAACUUUAAAUGCCGGGGAAAGUAUUGCACACUGCAACAGAGGAUUGAGCAUCA
# B7: 69235085_69235205_3312_3pUTR_ENSG00000135679_ENST00000462284|human|control|control (ssRNA)
# RNA: GGGAGUUCUACAGUCCGACGAUCGGCUGGAGAAUAAGUACAUUUUUACAGCCGGGUGUGGUGGCUAACGCCUGUAAUCCUACUUAGCACUUUGCGAGGCCAAGACAGGAGGAUCUCUUGAGCCCAGGAGUUCGAGACCAGCCUCAACAGAGGAUUGAGCAUCA
# B8: 130011425_130011891_1932_CDS_ENSG00000084234_ENST00000528499|human|control|control (ssRNA)
# RNA: GGGAGUUCUACAGUCCGACGAUCGGCCACUGCGAUGACCAGCAGGCCAAUGAGAGCACUGCUACUCAGACUGAAGUCCUCCCGCAGUGGGCCCACGGAUUCCCGCUCUUCCUCGAGGCCUCCAACUCUCUCGGCAUUGAAAAUCAACAGAGGAUUGAGCAUCA
# B9: chr1:63226128:63226129:+_ENSMUSG00000025967_ENSMUST00000135877|mus_hu|motif|central (ssRNA)
# RNA: GGGAGUUCUACAGUCCGACGAUCCUCAAAAGCAGUGAUCUGCUCCUCCAGCAUAUCUGUUCCAACUUUAUCAUCUUCAACGGCACACUGUAUUUGAAGUUUCUUAAUUCCGUAUCCCACUGGAACUAGUUUAGAUGAGCCCCACAACAGAGGAUUGAGCAUCA
# B10: chr7:135612270:135612271:-_ENSG00000105887_ENST00000393085|hu_mus|hu_hu_hu_mus_False|1_8 (ssRNA)
# RNA: GGGAGUUCUACAGUCCGACGAUCGUUUUUUUCUGAGAUGUUAAAUAGUACUUCAGUGGAAAACAAAACUUAACCUUUUAUUAAUGCGUGUUGUACCAAAAGCAGACAUUUUAGCUUCAUUUAUUCACUCAAAAUAUGAACAUUCAACAGAGGAUUGAGCAUCA
# B11: 57314940_57316855_929_3pUTR_ENSG00000128050_ENST00000264221|human|control|control (ssRNA)
# RNA: GGGAGUUCUACAGUCCGACGAUCGCAACCCACUCAAAGUUUUUCUUUACCAUUUGGAGCCCUUCAGGAGUUACUUCUUUGAGGUCCCGAUAAGACUGUUUGUCUUUCUGUUGGCUUCGAUCUCCUGAUGGCCAGAGUCUCCAGCAACAGAGGAUUGAGCAUCA
# B12: chr12:86613709:86613710:-_ENSMUSG00000008822_ENSMUST00000008966|mus_hu|FALSE|FALSE (ssRNA)
# RNA: GGGAGUUCUACAGUCCGACGAUCUUGCAAUUGUCCUUGCACUGUGCCCCGGUCAGUGUUCUGGACCCAGCCUACCAAUCCCAGCUUUUUACCCUCAGCCUGAGUAUGCUUACGGAAAAACACCCCUUGCACCUUCCCAAAAAUCAACAGAGGAUUGAGCAUCA
# B13: chr8:25296883:25296884:-_ENSG00000104756_ENST00000221200|hu_hu|FALSE|FALSE (ssRNA)
# RNA: GGGAGUUCUACAGUCCGACGAUCGUAGUUCAAAAUGGGUUCGAAGUACUCAGGACUUCGGUCAAUUAAGAAAGCUCCUCUAUGAUCUUGCUUAUUUCCCCAGACACCUUUGUCCUUAAACAUGUGGGCCAGCAUACUGUCAGGCAACAGAGGAUUGAGCAUCA
# B14: 93826433_93826553_1586_3pUTR_ENSG00000117505_ENST00000370272|human|control|control (ssRNA)
# RNA: GGGAGUUCUACAGUCCGACGAUCGAAAUGCAAAUGCAGAUUUAGAGCUUUGUAGAAAUUUCACUGUAUUUUUAUAAACUUGAAGUUAUCUGUAACACUGUUUAUUGAUCAAACGAAGGACUCGCUGCUAUCUAAAAUUUCAUACAACAGAGGAUUGAGCAUCA
# Target: T1, UNK ZnF1-3 (human, UniProt Q9C0B0 31-174)
# T1 sequence: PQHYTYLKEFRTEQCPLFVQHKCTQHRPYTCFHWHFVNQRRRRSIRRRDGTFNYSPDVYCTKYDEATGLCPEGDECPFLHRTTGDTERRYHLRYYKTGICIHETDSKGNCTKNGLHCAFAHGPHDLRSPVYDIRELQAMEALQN
# Assay: nsRBNS (natural sequence RNA bind-n-seq); RBNS binding buffer (assumed for nsRBNS): 25 mM Tris pH 7.5, 150 mM KCl, 3 mM MgCl2, 0.01% Triton X-100, 500 ug/ml BSA, 20 U/ml SUPERase-In, 4 C; UNK is unkempt and MSI1 is Musashi-1; names of the RNAs are library labels; protein concentration not given here; high values mean tight binding
row,Binder,binding signal [enrichment R]
1,B1,0.293
2,B2,1.22
3,B3,0.77
4,B4,0.621
5,B5,0.72
6,B6,1.13
7,B7,1.12
8,B8,0.811
9,B9,0.91
10,B10,0.759
11,B11,0.473
12,B12,1.24
13,B13,1.08
14,B14,0.898

# Source: paper PMC12136788
